Test results: patent US20150031733A1, “TETRAZOLINONE COMPOUNDS AND ITS USE” (SUMITOMO CHEMICAL COMPANY, LIMITED, priority 2012, published 2015)

System: cucumber anthracnose fungi (Colletotrichum lagenarium)
Assay: Cucumber anthracnose control test, foliar spray before inoculation
Assay type: in vivo
Conditions: 12.5 ppm, foliar spray 1 day before inoculation, cucumber (cv; Sagamihanjiro)

Question: With `CCOc1cccc(-n2nnn(C)c2=O)c1COc1nc(-c2ccccc2C)cs1` [Compound T095, 2-{[1-(4,5-dihydro-4-methyl-5-oxo-1H-tetrazole-1-yl)-3-ethoxyphenyl-2-yl]methyloxy}-4-(2-methylphenyl)thiazole] as the molecule, how does the “lesion area compared to the lesion area in untreated plants” value read?
Answer: Its value is no more than 30%.
